This data set can be described thus: solvent given as SMILES.

Three compounds from the Deep4Chem optical property database can be followed below.

As to `COC(=O)c1ccc(-c2ccc(-c3nnc(-c4ccc(-c5nnc(-c6ccc(-c7ccc(C(=O)OC)cc7)s6)o5)cc4)o3)s2)cc1`, the absorption maximum came out at 344 nm (in C1COCCO1); 338 nm (in CC#N); 341 nm (in CC(=O)N(C)C); 336 nm (in CCCCCCCCCCO); 334 nm (in CCCCCCCCO); 340 nm (in CCCCCCO). The absorption maximum amounted to 337 nm (in CCCCO); 333 nm (in CCO); 350 nm (in CS(C)=O); 345 nm (in Cc1ccccc1); 345 nm (in ClC(Cl)Cl).

In the case of `CN(C)c1ccc2c(c1)Cc1ccccc1-2`, the absorption maximum is on record as 310 nm (in C1CCOC1); 310 nm (in C1COCCO1); 312 nm (in CC(=O)N(C)C); 303 nm (in CCCCCC); 307 nm (in CCOC(C)=O); 305 nm (in CCOCC). The same compound had an absorption maximum (in CS(C)=O) of 316 nm.

In the case of `C1=C/C2=C(\c3ccccc3)c3c[nH]c(c3)/C(c3ccccc3)=C3/C=CC(=N3)/C(c3ccccc3)=c3/cc/c([nH]3)=C(\c3ccccc3)C1=N2`, the absorption maximum (in CC(=O)N(C)C) stood at 699 nm.
